# Test results as given in PubChem BioAssay AID434955 (Southern Research Specialized Biocontainment Screening …, 2010).
# This is one part of the list. Further columns of the screen follow, without active or inactive calls. Compounds called inactive in the main read-out are mostly missing here.
# Assay: beta-lactam sensitization of Mtb H37Rv, H37Rv (AID 434955);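 further: growth measured after seven days incubation then overnight dye step; 0% = bacteria only wells and 100% = bacteria with antibiotic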
# Conditions: M. tuberculosis H37Rv growth with meropenem, percent inhibition; measured here: primary screen without meropenem; at 25 µM
row,SMILES,inhibition
1,COc1cc(OC)cc(C(=O)NN2CCCCC2)c1,-0.06%
2,CCc1ccc(OCC(=O)N/N=C/c2cc([N+](=O)[O-])ccc2N2CCOCC2)cc1,72.5%
3,O=C(COCc1cc(-c2ccc3c(c2)OCO3)on1)N1CCN(c2ccccc2)CC1,4.76%
4,CC1CCCCN1S(=O)(=O)c1ccc2c(c1)C(C)(C)C(=O)N2C (stereo not given),-6.07%
5,CCN(CC(=O)N1CCc2ccccc2C1)S(=O)(=O)c1ccc2ccccc2c1,5.34%
6,COc1ccccc1N1CCN(S(=O)(=O)c2ccc3nc(-c4ccccc4)[nH]c3c2)CC1,29.8%
7,Cc1nc2cc(NC(=O)COc3ccc(C#N)cc3)ccc2n1-c1ccccc1,73.8%
8,Cc1cccc(NC(NC(=O)c2cccnc2)C(Cl)(Cl)Cl)c1 (stereo not given),-1.38%
9,O=c1ccc(-c2ccccc2)nn1Cc1ccc(F)cc1,11.5%
10,Cc1csc(NC(=O)C2CCCO2)n1 (stereo not given),1.41%
11,O=C(NC1CCCCC1)c1cc2ccccc2cc1O,5.7%
12,O=C(Nc1ccon1)c1ccc(F)c(S(=O)(=O)N2CCCCC2)c1,1.2%
13,O=C(NC(=S)NC1CCS(=O)(=O)C1)c1ccccc1F (stereo not given),-5.12%
14,N#Cc1ccsc1NC(=O)CCS(=O)(=O)c1ccccc1,0.69%
15,COc1ccc2oc(C(=O)Nc3nc4ccccc4[nH]3)c(C)c2c1,25.6%
16,COc1ccc(CCNC(=O)CCc2nnc(Cc3ccc4c(c3)OCO4)o2)cc1,3.46%
17,CSc1ccccc1C(=O)Nc1cccc([N+](=O)[O-])c1C,-0.5%
18,O=C(Cn1nnc(-c2cccs2)n1)N1c2ccccc2Sc2ccc(C(F)(F)F)cc21,2.06%
19,CCCc1cc(NCCCCO)n2c(nc3ccccc32)c1C#N,-18.1%
20,CCOC(=O)c1oc2ccccc2c1NC(=O)c1cccc(OC)c1OC,-3.13%
21,COc1cc(CSc2nc(-c3ccccc3)cc(=O)[nH]2)cc(OC)c1,2.19%
22,CCOC(=O)N1CCC(n2c(=S)[nH]c3cc(OC)c(OC)cc3c2=O)CC1,-0.02%
23,Cc1ccc(-c2csc3ncnc(N4CCc5ccccc5C4)c23)cc1,8%
24,Cc1cc2c(cc(C(=O)OCC(=O)NCc3ccco3)n2C)s1,1.6%
25,O=C(COc1ccccc1)NNC(=O)c1cc2ccccc2o1,2%
26,CCCC(O)(c1ccc(Br)cc1)C(CN1CCOCC1)c1ccc(Cl)cc1 (stereo not given),96.7%
27,O=C(CC1C(=O)NCCN1Cc1ccccc1F)NC1CCCCCC1 (stereo not given),3.72%

row,SMILES,inhibition
1,CC1(C)CC(=O)c2cc(C(=O)NCc3ccco3)c(=O)n(-c3ccccc3)c2C1,19%
2,CCOC(=O)CSc1nnc(CNc2ccccc2Cl)n1-c1ccccc1,-2.78%
3,N#Cc1c2n(c3c(=O)n(Cc4ccccc4Cl)cnc13)CCCC2,4.98%
4,CCOc1ccc2c(c1)c(C(C)=O)c(C)n2-c1ccccc1,47.7%
5,O=C(Nc1cccc(-c2cn3cccnc3n2)c1)c1ccc(Br)o1,2.6%
6,Cc1cc(C)n(-c2nc3ccccc3c(=O)n2OCC(C)C)n1,-1.31%
7,Cc1ccc(-c2n[nH]c(=S)nc2-c2ccc(C)cc2)cc1,4.05%
8,CN(C)c1ccc(CN2CC=C(c3ccc(F)cc3)CC2)cc1,5.45%
9,CC(=O)Nc1ccc(Nc2ncc([N+](=O)[O-])c(Nc3ccc(NC(C)=O)cc3)n2)cc1,47.7%
10,NS(=O)(=O)c1ccc(O)c(NC(=O)c2ccc([N+](=O)[O-])o2)c1,15.1%
11,COC(=O)Cn1cnc2c(nnn2-c2ccc(C)cc2)c1=O,0.21%
12,Cc1cc(NS(=O)(=O)c2ccc(N3C(=O)C4C5C=CC(C5)C4C3=O)cc2)nc(C)n1 (stereo not given),0.58%
13,CC1CCCCN1CCCNC(=O)CN1C(=O)c2cccnc2Oc2ccc(Cl)cc21 (stereo not given),4%
14,O=C(CN(Cc1ccccc1)C(=O)c1cccc([N+](=O)[O-])c1)Nc1c(Cl)cc(Cl)cc1Cl,-1.11%
15,CCOC(=O)c1c(C)[nH]c(C)c1C(=O)COC(=O)/C=C/c1ccc(OC(F)F)cc1,14.6%
16,O=C(Nc1ccc(F)cc1)c1ccc2c(=O)n3c(nc2c1)CCCCC3,-3.27%
17,Cc1cccc(OCCNc2cc(N3CCN(C)CC3)ccc2[N+](=O)[O-])c1,86%
18,CC(=O)Nc1ccc(N2CCN(C(=O)c3cccs3)CC2)cc1,5.16%
19,CN(C(=O)CN1C(=O)S/C(=C\c2cccc(Cl)c2)C1=O)C1CCS(=O)(=O)C1 (stereo not given),-0.44%
20,Cc1ccc(-n2c(N)cc(=O)nc2SCC(=O)N2CCN(c3ccccc3)CC2)cc1C,-4.15%
21,Cc1cc2oc(=O)cc(CN3CCC(C)CC3)c2cc1C,21.6%
22,c1ccc(-c2ccc(C3=Nn4c(Cn5nnc6ccccc65)nnc4SC3)cc2)cc1,13.7%
23,COc1cccc2sc(N(CCN(C)C)C(=O)c3ccc(S(=O)(=O)N4CCCC4)cc3)nc12,2.38%
24,O=C(CSc1nc(N2CCOCC2)nc(N2CCOCC2)n1)Nc1cccc(C(F)(F)F)c1,0.28%
25,COC(=O)c1nnn(CC(=O)NC(=O)Nc2ccc(F)cc2)c1C(=O)OC,2.34%
26,Cn1c(CCNC(=O)c2ccco2)nc2cc(NC(=O)NC3CCCCC3)ccc21,-2.9%
27,COC(=O)/C(C#N)=C/c1c(N2CCCCCC2)nc2ccccn2c1=O,-9.73%

row,SMILES,inhibition
1,O=c1c2cc(N3CCOCC3)ccc2[nH]c(=S)n1CCCN1CCCC1,-0.67%
2,COc1ccc(OCc2cc(C(=O)NCC(C)(C)N3CCOCC3)no2)c(Cl)c1,0.74%
3,CCOc1ccc(NS(=O)(=O)c2ccc(OCC)c3ncccc23)cc1,-5.12%
4,COc1cc(C(=O)Nc2cccc(-c3cn4cccnc4n3)c2)cc(OC)c1OC,41.6%
5,CS/C(N)=N/N=C/c1cc(Br)cc(Br)c1O,5.76%
6,CCOC(=O)Nc1ccccc1N1C(=O)c2ccccc2C1=O,-1.6%
7,O=C(c1ccccc1)c1cc2cc(Cl)ccc2[nH]1,4.99%
8,O=[N+]([O-])c1cccc(CSC2=NCCN2S(=O)(=O)c2ccccc2)c1,1.87%
9,C#CCNc1cc(C)nc2ncnn12,-12.2%
10,CCN(CC)c1ccc(NC(=O)CCc2nnc3ccc(N4CCCC4)nn23)c(C)c1,-2.06%
11,CC1CCCN(S(=O)(=O)c2ccc(C(=O)Nc3nnc(-c4ccncc4)o3)cc2)C1 (stereo not given),46.5%
12,COc1ccc(CCN=C(N)NS(=O)(=O)c2ccc(OC)c(OC)c2)cc1OC,-0.45%
13,CC(=O)OC[C@H]1O[C@@H](Sc2cccc3cccnc23)[C@H](OC(C)=O)[C@@H](OC(C)=O)[C@@H]1OC(C)=O,2.18%
14,O=C(Nc1ccc(-n2cccn2)cc1)C1CCN(Cc2ccccn2)CC1,-8.74%
15,COc1ccc(-c2csc3ncnc(N4CCN(c5cccc(Cl)c5)CC4)c23)cc1,-0.6%
16,CCn1cc(C(=O)NN)c(=O)c2cc(F)c(N3CCN(C)CC3)cc21,4.97%
17,O=C(Cn1ncc2c(=O)oc3ccccc3c21)NCCCN1CCCC1=O,-13.1%
18,O=C(Nc1cccc(NC(=O)c2cccs2)c1)c1ccc(Br)o1,4.61%
19,Cc1cc2[nH]c(=O)c(=O)[nH]c2cc1S(=O)(=O)NCc1ccc(Cl)cc1,-6.54%
20,C=CC(=C)CC(NC)c1ccccc1 (stereo not given),4.39%
21,COc1ccc(/C=N/NC(=O)c2ccc3c(c2)OCCO3)c(OC)c1,5.21%
22,O=C(CSc1ccc2nnc(-c3ccccn3)n2n1)Nc1ccccc1,1.17%
23,CC(C)OCCCNc1ncnc2c1[nH]c1ccccc12,1.73%
24,CCn1cc(C(=O)NCC2CCCO2)c(=O)c2cc(S(=O)(=O)N3CCC(C)CC3)ccc21 (stereo not given),-0.99%
25,CCOC(=O)c1sc2nc(C)nc(SC(C)C(=O)NC3CC3)c2c1C (stereo not given),61.1%
26,CCc1nnc(NC(=O)CSc2nnc(Cc3ccccc3)n2-c2ccc(OC)cc2)s1,-0.28%
27,CN(Cc1ccncn1)C(=O)C1CCC(=O)N(Cc2cccc(C(F)(F)F)c2)C1 (stereo not given),2.04%

row,SMILES,inhibition
1,CC1(C)CCN2CCC(C)(C)c3c(O)ccc1c32,0.32%
2,O=C(COCc1cc(-c2ccco2)on1)NC1CCCCC1,-2.83%
3,COc1ccc(O)c(/C=N/NC(=O)CN2CCS(=O)(=O)CC2)c1,-1.95%
4,Cc1ccc(S(=O)(=O)N2CCN=C2SCc2c(F)cccc2Cl)cc1,-1.67%
5,Cc1[nH]n(-c2ccccc2)c(=O)c1/C=N/NC(=O)c1cccc([N+](=O)[O-])c1,9.39%
6,CCCCc1nc2cc(C(=O)N3CCCCC3CCO)ccc2o1 (stereo not given),3.44%
7,Cc1ccc(C)c(N2CCN(C(=O)CCS(=O)(=O)c3ccc4c(c3)CCN4C(=O)C3CC3)CC2)c1,2.28%
8,Cc1ccc2c(c1)NC(=O)C(CC(=O)NC1CCCCC1C)O2 (stereo not given),-5.29%
9,Cc1ccc2c(c1)CCCN2C(=O)c1cc2ccccc2oc1=O,27.6%
10,COc1ccc2sc(-c3ccc(SC)cc3)c(C#CC(C)(C)O)c2c1,65.9%
11,O=C(O)CCCN1C(=O)/C(=C/c2ccc(-c3nc4ccccc4s3)o2)SC1=S,17.2%
12,COCCn1c(N2CCN(c3ccc(OC)cc3)CC2)nc2c1c(=O)n(C)c(=O)n2C,0.85%
13,O=C(NC1CCCN(c2ccc(C(F)(F)F)cn2)C1)c1cc(Cl)ccc1F (stereo not given),5.81%
14,CCCOC1CCCN(C(=O)c2cc(COc3ccc(F)c(F)c3)on2)C1 (stereo not given),13.8%
15,N#Cc1c(SCC(=O)O)nc(N2CCCCC2)c2c1CCCC2,23.1%
16,COc1ccc(OC)c(N(CC(=O)NC2CCCCCC2)S(=O)(=O)c2ccc(C)cc2)c1,4.92%
17,Cc1occc1C(=O)N1CCC2(CCCN(Cc3ccc(F)c(F)c3)C2)C1 (stereo not given),13.6%
18,Cc1oc2c(CN3CCCC(C)C3)c(O)ccc2c(=O)c1-c1ccccc1 (stereo not given),0.44%
19,COc1ccc(CCNC(=O)c2c(C)nn(-c3ccccc3)c2Cl)cc1,-4.93%
20,CCOC(=O)N1CCN(c2ccncc2S(=O)(=O)N2CCCCC2)CC1,-0.06%
21,Cc1cc(C)nc(CCNC(=O)CC2C(=O)NCCN2Cc2ccc(F)cc2Cl)n1 (stereo not given),-4.3%
22,CC(C)Oc1ccc(N2CC(C(=O)Nc3ccccc3F)CC2=O)cc1 (stereo not given),33%
23,Cc1cccc(-n2nc([N+](=O)[O-])c(=NC3CCN(Cc4ccccc4)CC3)n2O)c1,-8.04%
24,O=C(c1ccc(S(=O)(=O)N2CCCC2)cc1)N1CCN(c2ccccc2F)CC1,-2.34%
